# This is one part of the list. These are noisy estimates, calculated here from bound and input reads.
# Target: T1, Pho4 (S. cerevisiae) (UniProt P07270)
# T1 sequence: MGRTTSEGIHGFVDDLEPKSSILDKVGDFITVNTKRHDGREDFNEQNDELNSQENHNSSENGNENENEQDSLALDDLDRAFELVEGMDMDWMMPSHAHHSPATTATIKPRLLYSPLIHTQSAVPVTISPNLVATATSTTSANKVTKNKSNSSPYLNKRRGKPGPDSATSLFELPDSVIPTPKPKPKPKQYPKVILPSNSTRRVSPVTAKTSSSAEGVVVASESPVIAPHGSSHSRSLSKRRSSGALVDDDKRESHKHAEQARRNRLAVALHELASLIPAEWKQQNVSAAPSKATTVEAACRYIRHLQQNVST
# Experiment: relative binding free energy (BET-seq); higher = weaker binding
# Conditions: reference: library average
row,Sequence,relative binding free energy [kcal/mol]
1,GGATACACGTGTGATG,0.17
2,TTTTCCACGTGAGCGG,0.32
3,TGACGCACGTGTGGAG,0.08
4,CGTATCACGTGAGGAG,0.4
5,ATAGTCACGTGGTTCA,-0.03
6,AGCTGCACGTGGCGGT,-0.11
7,GACTGCACGTGTTTGT,0.06
8,GGAATCACGTGATGGT,0.34
9,CGATGCACGTGACGGG,0.11
10,TGATGCACGTGTGTTG,0.02
11,TGGGTCACGTGAGCTT,0.32
12,TTTTTCACGTGTAAGT,0.38
13,GTGGTCACGTGGATAG,0
14,AGGCGCACGTGATGTG,-0.15
15,TGGTTCACGTGGCAGT,0.05
16,TGGTGCACGTGGTTTG,-0.01
17,TCTTTCACGTGGAATA,0.39
18,TTGTGCACGTGGGGCT,-0.1
19,GTAGCCACGTGAGTGT,0.02
20,TGTAGCACGTGGTTCC,-0.02
21,AGTTCCACGTGTTTGG,0.05
22,CTTGTCACGTGTGGCG,0.03
23,CTGTTCACGTGGTTTG,0.33
24,TTGAGCACGTGTTTAG,-0.05
25,TGAATCACGTGAGTTT,0.31
26,TATTGCACGTGGGGGC,-0.09

row,Sequence,relative binding free energy [kcal/mol]
1,AGAGGCACGTGCGTTT,-0.13
2,TCGTTCACGTGGGTTT,0.33
3,TATTGCACGTGGAATG,-0.09
4,AGTATCACGTGATTAG,0.16
5,TGGCTCACGTGCCGGG,0.01
6,GATTTCACGTGATTGA,0.39
7,GGGAGCACGTGTTTTG,-0.02
8,GTGATCACGTGGTAAG,0.14
9,GGGTTCACGTGGAATT,0.54
10,GTCGGCACGTGGAATG,-0.03
11,TGAGGCACGTGCGTTT,-0.15
12,TCATACACGTGGGTGG,0.06
13,GGGGGCACGTGCTAAG,-0.2
14,CGAGTCACGTGGTCTG,0.05
15,CTAGTCACGTGGTTGG,-0.01
16,TAATTCACGTGGCGTT,0.29
17,TCGGGCACGTGTAGAG,-0.07
18,GTTATCACGTGCGCGG,-0.08
19,AGGCGCACGTGTTTGA,-0.22
20,AATGGCACGTGCTTTG,-0.27
21,TGGACCACGTGGGGAA,-0.14
22,GTGGCCACGTGGCAGG,-0.31
23,TACTTCACGTGTGGTT,0.33
24,GATGACACGTGTGAGT,0.1
25,ATAGGCACGTGGGGAT,-0.22
26,TAGGCCACGTGGTTAA,0.04

row,Sequence,relative binding free energy [kcal/mol]
1,TGTTACACGTGTTTTG,0.12
2,GTTGGCACGTGGAGAT,-0.07
3,CTAATCACGTGTTGGT,0.11
4,GATGGCACGTGACTGT,0.04
5,AGTAGCACGTGATATG,0.06
6,ATTGCCACGTGAGGAG,0.06
7,ATCTGCACGTGGGTTC,0.06
8,CGTTACACGTGGTGAT,0.08
9,AATGGCACGTGTCAGT,-0.14
10,TTTGGCACGTGGGTGC,-0.18
11,GGGGCCACGTGGTTCT,-0.02
12,TCGGGCACGTGCGAGT,-0.01
13,AAAGTCACGTGGTTAA,0.12
14,TTGGCCACGTGAGTGT,0.08
15,TGAATCACGTGATTTG,0.27
16,TGTTGCACGTGCTCGT,-0.12
17,AGTGTCACGTGGAAAG,-0.01
18,TATGGCACGTGAGCGC,0.22
19,TCTGGCACGTGTTGGA,0.06
20,AAGTTCACGTGTAGTG,0.34
21,GTGCGCACGTGTTATG,-0.15
22,GGAGTCACGTGTAGGG,0.12
23,CTGGGCACGTGCGGCT,-0.09
24,GTATTCACGTGGAGGG,0.29
25,GGGTGCACGTGGCGTC,-0.04
26,CGTTTCACGTGGTCAT,0.27

row,Sequence,relative binding free energy [kcal/mol]
1,AAGGGCACGTGGGATG,-0.14
2,GGAGGCACGTGCAAGG,-0.09
3,TCGTGCACGTGAGTTT,0.19
4,CTATGCACGTGTTTAT,-0.03
5,ACAGTCACGTGGGGTG,-0.09
6,ACTTTCACGTGAGTGG,0.35
7,ACATTCACGTGTTAGG,0.22
8,GGGGACACGTGAGGAG,0.28
9,TTATACACGTGTTGTG,-0.05
10,TTTTGCACGTGTGCGT,0.01
11,GAGTTCACGTGTTTGC,0.3
12,ATGGGCACGTGGAACT,0.03
13,ATATACACGTGTAGGG,0.09
14,GAAAACACGTGGTGTA,0.06
15,CATGTCACGTGGTTGA,0.02
16,CTATGCACGTGTGGGC,-0.03
17,GCATTCACGTGGTGGA,0.31
18,GAATTCACGTGCAGGT,0.38
19,TAAGGCACGTGAGTGA,0.01
20,GGGCACACGTGTGGAT,0.06
21,TAAGGCACGTGGCGAG,-0.16
22,GGGGCCACGTGGGGGC,-0.09
23,GATAGCACGTGGAGTG,0
24,TTATTCACGTGAACTT,0.29
25,CTAGGCACGTGGAGGG,-0.28
26,TGTGCCACGTGAGGGT,0.15

row,Sequence,relative binding free energy [kcal/mol]
1,CGAGGCACGTGGGCGG,-0.36
2,GTAAACACGTGGGTGA,-0.14
3,TAGTGCACGTGCTTAT,-0.19
4,TGCGGCACGTGTATCG,0.05
5,TTGGTCACGTGGCTTA,0
6,ATCGGCACGTGGCGGA,-0.06
7,TAGGTCACGTGTGCAT,0.16
8,GAGGTCACGTGGAAAG,0.2
9,GCGCTCACGTGTGGTG,0.16
10,AATGACACGTGGGGAA,0
11,TGGGGCACGTGCGTTG,-0.16
12,GTTTACACGTGTTAAC,0.28
13,AGGAGCACGTGCATGT,-0.12
14,TTGGTCACGTGATTTC,0.43
15,GGGCTCACGTGTGGAG,0.28
16,CTGTGCACGTGTTTTG,0.07
17,AGGTACACGTGACGGG,0.22
18,TAGACCACGTGGTAGG,-0.03
19,TTAACCACGTGTGGTT,-0.14
20,GTGGACACGTGGTCGC,-0.04
21,TTGATCACGTGTATAA,0.11
22,ATTCCCACGTGGGGTT,-0.13
23,GGATTCACGTGGTGTT,0.27
24,TAGTTCACGTGGTTGG,0.33
25,ATGTGCACGTGGTGAT,-0.19
26,TTGGTCACGTGCGGCT,-0.04

row,Sequence,relative binding free energy [kcal/mol]
1,GTCAGCACGTGGCGGT,-0.17
2,TGGCGCACGTGTGAAG,0.07
3,GTGATCACGTGTTTAG,0.19
4,TTTTTCACGTGGATAG,0.3
5,CTGGCCACGTGTTGTG,-0.03
6,ATTTGCACGTGACGTT,0
7,TTTTACACGTGTGGAT,0.26
8,TGTGGCACGTGTTTCT,-0.04
9,AGGGTCACGTGGGCAT,-0.1
10,ATTTTCACGTGAGAGC,0.48
11,GGTGTCACGTGTCAAG,0.1
12,AGGATCACGTGGCGAA,0.26
13,TGGTACACGTGGTAAA,0.09
14,AGGTGCACGTGATTGA,0.18
15,GGGTTCACGTGTTACA,0.34
16,TGTAACACGTGAAATG,0.25
17,TGGGCCACGTGTATGG,-0.06
18,AGGGGCACGTGTGAGG,-0.05
19,GAATGCACGTGATGGG,0.07
20,GTAGGCACGTGGGTGA,-0.13
21,AAGTTCACGTGTTGTG,0.31
22,AGAGTCACGTGAAGAG,0.18
23,TGATTCACGTGTTTTT,0.4
24,AGGATCACGTGCTTGA,0.24
25,TGGCTCACGTGGTTTC,0.27
26,AGGGGCACGTGGTCGA,-0.27

row,Sequence,relative binding free energy [kcal/mol]
1,TTCAGCACGTGTTGGT,-0.14
2,TGATTCACGTGTATGT,0.22
3,GGTGTCACGTGGGGGG,0
4,AGTAACACGTGGGAGT,-0.17
5,TGTATCACGTGTACTG,0.13
6,AGCTGCACGTGCGTGT,-0.11
7,GTGGGCACGTGGGGCC,-0.24
8,TTATGCACGTGCGGTC,0.01
9,GTTGTCACGTGTTAAC,0.22
10,GTAATCACGTGGTATG,0.04
11,AATGTCACGTGTGGTG,0.13
12,CGGGACACGTGGTATT,0
13,GTGTACACGTGTTTCG,0.1
14,ATAGTCACGTGTTGTT,0.2
15,CCGGTCACGTGGTGTG,-0.15
16,CGGGGCACGTGGGGGA,-0.22
17,CTGGACACGTGCTGGT,0.09
18,CGGCGCACGTGTGTTT,0
19,TGCGGCACGTGCTGGC,-0.13
20,TTGCACACGTGGTGTG,-0.14
21,ATGAGCACGTGAGGAA,0.16
22,GTATTCACGTGGCTTT,0.24
23,TCTGCCACGTGTAGGG,0.08
24,GGTTGCACGTGTACTG,0.04
25,ATGTGCACGTGTATCG,0.03
26,GGCGGCACGTGGATAT,0.09

row,Sequence,relative binding free energy [kcal/mol]
1,TCTGGCACGTGGATGG,-0.07
2,GGGGACACGTGCGGAG,-0.05
3,CGGTTCACGTGTATGG,0.23
4,CGAGACACGTGGTGTG,-0.02
5,CTGGTCACGTGCGCGG,-0.1
6,TGGCTCACGTGTTTCT,0.26
7,GGGGTCACGTGCGGGT,0.19
8,TATAGCACGTGGGTTG,-0.19
9,GGGACCACGTGGAGAG,0.03
10,TAGTGCACGTGTAGTA,0.01
11,ACGTTCACGTGTGTCG,0.24
12,TGTAACACGTGTTTGG,-0.04
13,TTTGTCACGTGCCTGA,0.07
14,TGTTCCACGTGTAAAG,0.25
15,TCTTACACGTGTAGGG,0.08
16,GCGGGCACGTGGCAGT,-0.13
17,TGCATCACGTGGTGAA,0.09
18,AGTTACACGTGGCGCG,0.13
19,GGTCCCACGTGCGGGG,-0.12
20,GTTTTCACGTGGAATG,0.37
21,CTTAGCACGTGATGAG,0.17
22,TGGTTCACGTGGATGT,0.27
23,GAGTGCACGTGATTCT,0.32
24,TTAGCCACGTGATTGT,0.06
25,GGATACACGTGTGAGT,0.14
26,GTAGACACGTGAGTTA,0.3

row,Sequence,relative binding free energy [kcal/mol]
1,GGTCTCACGTGGGTTT,0.25
2,GATAGCACGTGGAGTA,0.08
3,TCGTTCACGTGTATTA,0.29
4,TCTTTCACGTGGTGTG,0.29
5,AGACGCACGTGTGTGT,-0.04
6,CACGTCACGTGGGTTG,-0.12
7,GAGGTCACGTGTTTCT,0.18
8,TTGTTCACGTGGTTAC,0.13
9,AGTGACACGTGAGGCT,0.21
10,GTCGTCACGTGTTTTA,0.14
11,ATGGTCACGTGTGGTG,0.16
12,TGCTTCACGTGTATTT,0.23
13,TCAGGCACGTGGAAGG,-0.05
14,ACTGGCACGTGGAGGA,-0.13
15,TTTTGCACGTGGAAAT,0.16
16,TGTTTCACGTGCAAGA,0.33
17,TTAGACACGTGAGGAT,0.31
18,TTGCACACGTGGTGAT,-0.07
19,TCGAGCACGTGTGGAG,0.07
20,TATTGCACGTGAAATT,0.19
21,CCGGGCACGTGGGGCT,-0.24
22,GGCAGCACGTGGGTAG,-0.16
